By IC50 is meant the dose at which the fit gives 50% viability; a fit beyond the top or the lowest dose is shown as a bound at that dose. AUC is the area under the same curve over the 256-fold range up to the top dose, as a fraction; it is 1 without any effect and falls as sensitivity rises. For part of these data: A top dose marked as inferred was calculated from the reported fits. For part of these data: An entry number marks a drug with two screens in the source, which often give different values.
Assays:
Assay in all cases: Viability of human cancer cell lines after 72 h of drug (GDSC screen)
[1] = compound: Cn1cc(C2=C(c3ccc(Cl)cc3Cl)C(=O)NC2=O)c2ccccc21 [SB 216763]; conditions: top dose 10 µM; top dose inferred
Description: (§1)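 Human cancer cell lines in 384-well plates, medium with 10% serum, drug for 72 h over a 256-fold dose range (nine 2-fold or five 4-fold steps up to the top dose). Adherent lines were fixed and stained with the nucleic acid dye Syto60, suspension lines read with resazurin; signal relative to control wells, capped at 0 and 100%. One two-parameter sigmoid per drug and line, fitted in a mixed model over all curves with the slope shared within a line.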

[2] = compound: CC(C)[C@H](C(=O)Nc1ccc(C(=O)NO)cc1)c1ccccc1 [AR-42]; conditions: top dose 5.12 µM; top dose inferred
Description: as §1

[3] = compound: C[C@]12O[C@H](C[C@]1(O)CO)n1c3ccccc3c3c4c(c5c6ccccc6n2c5c31)CNC4=O [CEP-701]; conditions: top dose 2 µM; top dose inferred
Description: as §1

[4] = compound: CS(=O)(=O)N1CCN(Cc2cc3nc(-c4cccc5[nH]ncc45)nc(N4CCOCC4)c3s2)CC1 [GDC0941]; conditions: top dose 4 µM; screen: GDSC drug entry 1527; top dose inferred
Description: as §1

[5] = compound: Cc1ccc(Nc2nccc(N(C)c3ccc4c(C)n(C)nc4c3)n2)cc1S(N)(=O)=O [Pazopanib]; conditions: top dose 8 µM
Description: as §1

Row | Cell Line | AUC [1] | IC50 [1] [nM] | AUC [2] | IC50 [2] [nM] | AUC [3] | IC50 [3] [nM] | AUC [4] | IC50 [4] [nM] | AUC [5] | IC50 [5] [nM]
1 | A375 (melanoma, adherent) | 0.94 | > 10000 | 0.524 | 367 |  |  |  |  |  | 
2 | A549 (lung adenocarcinoma, adherent) | 0.94 | > 10000 |  |  | 0.393 | 61 |  |  |  | 
3 | BALL-1 (B-cell leukaemia, suspension) | 0.997 | > 10000 |  |  | 0.626 | 252 | 0.983 | > 4000 |  | 
4 | BFTC-905 (bladder, adherent) | 0.924 | > 10000 | 0.671 | 888 |  |  | 0.712 | 898 | 0.973 | > 8000
5 | BT-549 (breast, adherent) | 0.979 | > 10000 |  |  | 0.607 | 277 |  |  |  | 
6 | CADO-ES1 (Ewing sarcoma, suspension) | 0.968 | > 10000 | 0.247 | 58.7 | 0.875 | > 2000 | 0.978 | > 4000 |  | 
7 | CL-34 (large intestine, adherent) | 0.985 | > 10000 |  |  | 0.907 | > 2000 |  |  |  | 
8 | CL-40 (large intestine, adherent) | 0.967 | > 10000 |  |  | 0.772 | 1390 |  |  |  | 
9 | CML-T1 (chronic myeloid leukaemia, suspension) | 0.988 | > 10000 |  |  | 0.579 | 197 | 0.977 | > 4000 |  | 
10 | COLO-205 (large intestine, suspension) | 0.976 | > 10000 | 0.556 | 453 |  |  | 0.726 | 1080 | 0.979 | > 8000
11 | COR-L321 (lung, suspension) | 0.969 | > 10000 | 0.214 | 46.6 | 0.762 | 714 | 0.962 | > 4000 |  | 
12 | CRO-AP2 (B-cell lymphoma, suspension) | 0.99 | > 10000 |  |  | 0.48 | 111 | 0.888 | 3470 |  | 
13 | D-423MG (glioma, adherent) | 0.934 | > 10000 | 0.518 | 361 | 0.693 | 495 | 0.713 | 1160 |  | 
14 | D-566MG (glioma, adherent) | 0.909 | > 10000 | 0.571 | 499 | 0.448 | 90.1 |  |  |  | 
15 | DOV13 (ovary, adherent) | 0.974 | > 10000 | 0.984 | > 5120 | 0.356 | 46.9 | 0.73 | 1270 |  | 
16 | ESO26 (oesophagus, adherent) | 0.985 | > 10000 | 0.46 | 251 | 0.704 | 452 | 0.808 | 1930 |  | 
17 | ESO51 (oesophagus, semi-adherent) | 0.977 | > 10000 | 0.53 | 399 | 0.745 | 862 | 0.941 | > 4000 |  | 
18 | FLO-1 (oesophagus, adherent) | 0.945 | > 10000 | 0.52 | 370 | 0.495 | 120 | 0.62 | 621 |  | 

Row | Cell Line | AUC [1] | IC50 [1] [nM] | AUC [2] | IC50 [2] [nM] | AUC [3] | IC50 [3] [nM] | AUC [4] | IC50 [4] [nM] | AUC [5] | IC50 [5] [nM]
19 | HOS (osteosarcoma, adherent) | 0.959 | > 10000 | 0.971 | > 5120 | 0.604 | 229 | 0.881 | 3000 |  | 
20 | HT-29 (large intestine, adherent) | 0.981 | > 10000 | 0.493 | 305 | 0.703 | 465 |  |  |  | 
21 | Hs746T (stomach, adherent) | 0.981 | > 10000 | 0.365 | 119 | 0.847 | > 2000 | 0.776 | 2190 |  | 
22 | IGR-37 (melanoma, adherent) | 0.989 | > 10000 | 0.474 | 274 | 0.266 | 28.9 |  |  |  | 
23 | IGROV-1 (ovary, adherent) | 0.967 | > 10000 |  |  | 0.699 | 596 | 0.612 | 588 |  | 
24 | JEKO-1 (B-cell lymphoma, suspension) | 0.987 | > 10000 |  |  | 0.318 | 39.6 |  |  |  | 
25 | JHOS-2 (ovary, adherent) | 0.966 | > 10000 | 0.675 | 1070 | 0.615 | 273 | 0.568 | 397 |  | 
26 | JHOS-3 (ovary, adherent) | 0.981 | > 10000 | 0.902 | > 5120 | 0.918 | > 2000 | 0.76 | 1780 |  | 
27 | JHOS-4 (ovary, adherent) | 0.98 | > 10000 |  |  | 0.756 | 979 |  |  |  | 
28 | Jurkat (T-cell leukaemia, suspension) | 0.993 | > 10000 |  |  | 0.679 | 357 | 0.889 | 3130 |  | 
29 | KARPAS-1106P (B-cell lymphoma, suspension) | 0.993 | > 10000 |  |  | 0.328 | 45.7 | 0.896 | 3380 |  | 
30 | KATOIII (stomach, semi-adherent) | 0.969 | > 10000 |  |  | 0.543 | 162 |  |  |  | 
31 | KMS-11 (myeloma, suspension) | 0.989 | > 10000 | 0.321 | 110 | 0.744 | 550 |  |  |  | 
32 | KYAE-1 (oesophagus, suspension) | 0.984 | > 10000 | 0.512 | 347 | 0.966 | > 2000 | 0.49 | 234 |  | 
33 | MDA-MB-231 (breast, adherent) | 0.946 | > 10000 | 0.593 | 584 | 0.731 | 594 |  |  |  | 
34 | MEL-HO (melanoma, adherent) | 0.986 | > 10000 |  |  | 0.535 | 156 | 0.765 | 1480 |  | 
35 | MHH-CALL-2 (B-cell leukaemia, suspension) | 0.996 | > 10000 |  |  | 0.725 | 442 | 0.997 | > 4000 |  | 
